Measurements from PubChem BioAssay AID1508623 (National Center for Advancing Translational Sciences (NCATS), 2021).
Among all 48,000 compounds or so, about 450 (0.94%) were called active. Roughly 19% stayed inconclusive and do not appear here. Calls follow the shape of the dose curve; as a rule, active = well fitted inhibition curve with a large enough effect; inconclusive = small, poorly fitted or top-dose-only effect; inactive = no such curve, though single readings can be large or run the other way. This is one part of the list.

Assay: Primary qHTS for Identification of Small Molecule Inhibitors of Huntingtin Promoter Activity; also: nearly all actives have a fitted effect of over 50% in size
Conditions: HEK293 HTT promoter firefly luciferase reporter (activity 0% = vehicle and -100% = no light), 24 h; series mostly up to 57.5 µM; activity change, negative = inhibition: at the top concentration
In short: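 Firefly luciferase readout (Dual-Glo, 10 min RT) after 24 h, 37 °C compound exposure (final up to 57.5 uM) of HEK293 reporter cells cultured 24 h beforehand; PTC124 at 50 uM final as control inhibitor; activity scaled vehicle 0%, zero RLU -100%.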

**Q.** Which “activity change, negative = inhibition” value does the source give for `CCOc1ccc(CC(=O)Nc2nnc3n2CCS3)cc1` here?
**A.** inactive: 2.77%

**Q.** For `COC(=O)CNC(=O)C(Cc1ccccc1)NS(=O)(=O)c1ccc2c(c1)c(=O)n(C)c(=O)n2C` (centres undefined), which “activity change, negative = inhibition” value is on record?
**A.** inactive: -7.94%

**Q.** For `CCN(C(=O)C1CCN(S(=O)(=O)c2ccc3c(c2)CCCN3C(=O)C2CCC2)CC1)c1cccc(C)c1`, which “activity change, negative = inhibition” value is on record?
**A.** inactive: -8.77%

**Q.** For `Cc1ccc(NC(=O)Cn2c(=O)n(CCCCCC(=O)NCc3ccc(F)cc3)c(=O)c3sccc32)c(C)c1`, which “activity change, negative = inhibition” value is on record?
**A.** inactive: -28.2%

**Q.** With `Cc1c(Cl)cccc1NC(=O)c1cnc2sc(N3CCCC3)nn2c1=O` as the compound, how does the “activity change, negative = inhibition” value read?
**A.** inactive: 3.72%

**Q.** For `COCCN1Cc2cccc(C(=O)Nc3ccc(C)cc3C)c2C1=O`, which “activity change, negative = inhibition” value is on record?
**A.** inactive: -0.462%

**Q.** For `Cc1cc2c(cc1S(=O)(=O)N1CCC(C)CC1)OCC(=O)N2`, which “activity change, negative = inhibition” value is on record?
**A.** inactive: -32.4%

**Q.** For `O=C(COc1ccccc1)Nc1ccc(S(=O)(=O)N(Cc2ccccc2)c2ccccc2)cc1`, which “activity change, negative = inhibition” value is on record?
**A.** inactive: -7.44%

**Q.** Which “activity change, negative = inhibition” value does the source give for `Oc1c(I)cc(Cl)c2cccnc12` here?
**A.** inactive: -12.1%

**Q.** Which “activity change, negative = inhibition” value does the source give for `Cc1ccc(-c2nnc(SCC(=O)N3CCc4ccccc43)o2)cc1` here?
**A.** inactive: -5.41%

**Q.** Which “activity change, negative = inhibition” value does the source give for `CCCC12CN3CC(CCC)(CN(C1)C3c1c[nH]c3ccccc13)C2=O` (centres undefined) here?
**A.** inactive: -13.1%

**Q.** Which “activity change, negative = inhibition” value does the source give for `O=S(=O)(c1ccc2ccccc2c1)n1nc(-c2ccco2)nc1NCc1cccc(Cl)c1` here?
**A.** inactive: -25.1%

**Q.** Which “activity change, negative = inhibition” value does the source give for `Cc1ccc(CNC(=O)c2ccc3c(c2)N(Cc2ccccc2F)C(=O)c2ccccc2S3(=O)=O)cc1` here?
**A.** inactive: -15.9%

**Q.** Which “activity change, negative = inhibition” value does the source give for `COc1ccc(S(=O)(=O)c2cn(C)c3cc(N4CCCC4)c(F)cc3c2=O)cc1` here?
**A.** inactive: -4.74%

**Q.** Which “activity change, negative = inhibition” value does the source give for `COc1cccc(CNC(=O)c2cnc(N3CCCC3)nc2C)c1` here?
**A.** inactive: -10%

**Q.** Which “activity change, negative = inhibition” value does the source give for `CN1CCN(C(CNC(=O)C(=O)Nc2ccc(F)cc2F)c2ccc3c(c2)OCO3)CC1` (centres undefined) here?
**A.** inactive: 0.301%

**Q.** With `CCOc1ccc(CCNC(=O)Cn2nnc(-c3ccc(OC)c(OC)c3)n2)cc1OCC` as the compound, how does the “activity change, negative = inhibition” value read?
**A.** inactive: -18%

**Q.** With `CC(C)Oc1ccc(CNS(=O)(=O)c2cnc(N)nc2)cc1` as the compound, how does the “activity change, negative = inhibition” value read?
**A.** inactive: 0.433%

**Q.** With `CC(C)Cn1cnc2c1c(=O)n(C)c(=O)n2C` as the compound, how does the “activity change, negative = inhibition” value read?
**A.** inactive: 5.01%

**Q.** For `COc1cc(NC(=O)c2nnn(CC(=O)Nc3ccccc3)c2N)cc(OC)c1`, which “activity change, negative = inhibition” value is on record?
**A.** inactive: -14%

**Q.** Which “activity change, negative = inhibition” value does the source give for `Cc1ccc2nc(-c3ccc(NC(=O)COc4c(C)ccc(C)c4C)cc3)sc2c1` here?
**A.** inactive: 30.9%

**Q.** With `CC(C)(C#N)c1cc(Cn2cncn2)cc(C(C)(C)C#N)c1` as the compound, how does the activity change, negative = inhibition read?
**A.** inactive

**Q.** With `O=C(NC1CCCCC1)c1ccc2c(c1)N(Cc1ccccc1)C(=O)c1ccccc1S2` as the compound, how does the “activity change, negative = inhibition” value read?
**A.** inactive: -2.08%

**Q.** For `O=C(CN1C(=O)C2(SCC(=O)N2c2ccccc2)c2ccccc21)NCc1ccccc1Cl` (centres undefined), which “activity change, negative = inhibition” value is on record?
**A.** inactive: -15.6%

**Q.** For `CCCc1nn2c(=O)cc(COC(=O)c3ccc(NC(=O)C(C)Oc4ccccc4)cc3)nc2s1` (centres undefined), which “activity change, negative = inhibition” value is on record?
**A.** inactive: -15.2%

**Q.** Which “activity change, negative = inhibition” value does the source give for `CCCCNc1nc(Oc2ccc(=O)n(C)n2)nc(N(C)C)n1` here?
**A.** inactive: 7.64%

**Q.** With `COc1ccc(C(=O)c2cn(Cc3ccc(C)cc3)c3cc4c(cc3c2=O)OCO4)cc1` as the compound, how does the “activity change, negative = inhibition” value read?
**A.** inactive: -28.1%

**Q.** For `Cc1c(Cl)cccc1NC(=O)CCn1c(=O)c2cccn2c2ccccc21`, which “activity change, negative = inhibition” value is on record?
**A.** inactive: -7.32%

**Q.** Which “activity change, negative = inhibition” value does the source give for `Cc1ccc2c(CC(=O)Nc3ccccc3C(F)(F)F)coc2c1C` here?
**A.** inactive: -0.736%

**Q.** Which “activity change, negative = inhibition” value does the source give for `CC(CNC(=O)C1CCN(Cc2cc3ccccc3n2Cc2ccccc2)CC1)c1ccccc1` (centres undefined) here?
**A.** inactive: -24.9%

**Q.** With `COc1ccc(Br)cc1CNC(=O)c1ccc2c(c1)nc1n2CCCCC1` as the compound, how does the “activity change, negative = inhibition” value read?
**A.** inactive: -15.6%

**Q.** Which “activity change, negative = inhibition” value does the source give for `Cc1cccc(CN2C(=O)c3ccccc3S(=O)(=O)c3ccc(C(=O)N4CCN(c5cc(C)ccc5C)CC4)cc32)c1` here?
**A.** inactive: -18.9%

**Q.** Which “activity change, negative = inhibition” value does the source give for `CCc1ccc(-c2cc3c(N4CCN(c5ccccc5)CC4)nccn3n2)cc1` here?
**A.** inactive: -2.9%

**Q.** Which “activity change, negative = inhibition” value does the source give for `COc1cccc(C(=O)n2nc(-c3ccco3)nc2NCc2cccs2)c1` here?
**A.** inactive: 9.07%

**Q.** For `Cc1cccc(-c2nc3nc(C)cc(N4CCN(c5ccccc5)CC4)n3n2)c1`, which “activity change, negative = inhibition” value is on record?
**A.** inactive: -1.3%

**Q.** With `COc1ccc(NC(=O)N2CCN(c3cc(-c4noc(C)n4)ccc3C)CC2)c(OC)c1` as the compound, how does the “activity change, negative = inhibition” value read?
**A.** inactive: -20.4%

**Q.** With `COc1cccc(N2CCN(Cc3nnc(-c4ccc5c(c4)OCO5)o3)CC2)c1` as the compound, how does the “activity change, negative = inhibition” value read?
**A.** inactive: -4.65%

**Q.** With `CC(C)(C)C1CCc2c(sc(NC(=O)c3ccncc3)c2C(=O)Nc2ccccc2Cl)C1` (centres undefined) as the compound, how does the “activity change, negative = inhibition” value read?
**A.** inactive: 1.06%

**Q.** Which “activity change, negative = inhibition” value does the source give for `Cc1c(C(=O)NCc2ccccc2Cl)sc2nc3n(c(=O)c12)CCC3` here?
**A.** inactive: 22.9%

**Q.** With `COc1ccc(N(CC(=O)NCc2ccc(C)cc2)S(=O)(=O)c2c(C)[nH]c(=O)[nH]c2=O)cc1` as the compound, how does the “activity change, negative = inhibition” value read?
**A.** inactive: -8.21%

**Q.** Which “activity change, negative = inhibition” value does the source give for `Cc1cc(C)cc(N2CCn3c2nc2c3c(=O)n(CCc3ccccc3)c(=O)n2C)c1` here?
**A.** inactive: 2.86%

**Q.** Which “activity change, negative = inhibition” value does the source give for `Cc1ccc(-c2nc3c4ccccc4n(Cc4cccc(Cl)c4)c(=O)n3n2)cc1` here?
**A.** inactive: -18.6%

**Q.** With `CCN1CCN(CCCNC(=O)Cn2nc(C)n3c(cc4cc(C)ccc43)c2=O)CC1` as the compound, how does the “activity change, negative = inhibition” value read?
**A.** inactive: 4.09%

**Q.** For `O=C(/C=C/N1C[C@@H]2C[C@@H]1CN2c1ccccn1)c1ccccc1O`, which “activity change, negative = inhibition” value is on record?
**A.** inactive: -10.7%

**Q.** With `CCc1ccc(S(=O)(=O)c2nnn3c2nc(N2CCCC(C)C2)c2cc(Cl)ccc23)cc1` (centres undefined) as the compound, how does the “activity change, negative = inhibition” value read?
**A.** inactive: 0.473%

**Q.** Which “activity change, negative = inhibition” value does the source give for `COc1ccc2nc(N3CCN(C(=O)c4ccco4)CC3)sc2c1` here?
**A.** inactive: 8.61%

**Q.** Which “activity change, negative = inhibition” value does the source give for `COc1ccc(OC)c(CNC(=O)C2COc3ccccc3C2)c1` (centres undefined) here?
**A.** inactive: -8.86%

**Q.** For `CCOC(=O)Cc1ccc(NC(=O)N2CC(CC)Oc3ccccc32)cc1` (centres undefined), which “activity change, negative = inhibition” value is on record?
**A.** inactive: -8.99%

**Q.** With `COc1cccc(Cn2cc(S(=O)(=O)c3ccc(C)cc3)c(=O)c3cc4c(cc32)OCO4)c1` as the compound, how does the “activity change, negative = inhibition” value read?
**A.** inactive: 0.0694%
